# According to patent US20230250147A1, “GLP-1R AGONISTIC PEPTIDES WITH REDUCED ACTIVITY” (SANOFI, priority 2020, published 2023):
# Molecular target: T1, Human GLP-1R (Homo sapiens, UniProt P43220)
# T1 construct: expressed in transfected cells; host or cells: HEK-293
# Test: HTRF cAMP assay in HEK-293 cells, human GLP-1R
# Assay type: cell-based
# Protocol: Recombinant HEK-293 cells were grown in T175 culture flasks placed at 37° C. to near confluence in medium (DMEM with 10% FBS) and collected in 2 mL vials in cell culture medium containing 10% DMSO in concentrations of 1-5×10^7 cells/mL. Each vial contained 1.8 mL cell suspension. The vials were slowly frozen to −80° C. in an isopropanol chamber, and then transferred to liquid nitrogen for long term storage.
# Prior to their use, frozen cells were thawed quickly at 37° C., washed with 20 mL cell buffer (1×HBSS; 20 mM HEPES, 0.1% BSA) and centrifuged for 5 minutes at 900 rpm. Cells were resuspended in assay buffer (cell buffer plus 2 mM IBMX) and adjusted to a cell density of 1×10^6 cells/mL. For measurement, 5 μL cell suspension (final 5×10^3 cells/well) and 5 μL of test compound were added to a well of a 384-well plate, followed by incubation for 30 minutes at room temperature. […] The cAMP content of cells was determined using a kit from Cisbio Corp. (cat. no. 62AM4PEC) based on Homogenous Time Resolved Fluorescence (HTRF).
# T1 sequence (P43220 24-463): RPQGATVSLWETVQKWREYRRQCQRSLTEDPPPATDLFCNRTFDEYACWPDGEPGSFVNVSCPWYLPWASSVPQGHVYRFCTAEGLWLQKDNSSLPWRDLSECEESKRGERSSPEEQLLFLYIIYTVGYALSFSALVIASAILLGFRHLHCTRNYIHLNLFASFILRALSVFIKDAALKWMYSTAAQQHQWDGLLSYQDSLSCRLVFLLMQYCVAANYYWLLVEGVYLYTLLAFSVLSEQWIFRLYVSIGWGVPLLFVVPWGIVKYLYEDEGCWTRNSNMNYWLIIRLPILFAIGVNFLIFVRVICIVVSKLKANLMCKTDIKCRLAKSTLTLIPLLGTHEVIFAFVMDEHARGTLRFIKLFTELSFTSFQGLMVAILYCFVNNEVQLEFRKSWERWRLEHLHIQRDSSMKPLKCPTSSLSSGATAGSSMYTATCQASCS
row,EC50 [pM],Molecule
1,8.48,"148 (protein, Fusion Protein) HGEGTFTSDKSQLLEKRLAHLFIEWLIAGGPSSGKYSPKGGGGGGGSGGGGSGGGGSA[… human IgG4 Fc with changes …]GGGSGSAHPIPDSSPLLQFGGQVRQRYLYTDDACQTEAHLEIREDGTVGGAADQSPESLLQLKALKPGVIQILGVKTSRFLCQRPDGALYGSLHFDPEACSFRELLLEDGYNVYQSEAHGLPLHLPGCKSPHRDPAPRGPARFLPLPGLPPAPPEPPGILAPQPPDVGSSDPLSMVGSQGRSPSYAS"
2,11.5,"150 (protein, Fusion Protein) HGEGTFTSDKSQLLEKELAHLFIEWLIAGGHSKGRPPPKGGGGGGGSGGGGSGGGGSA[… human IgG4 Fc with changes …]GGGSGSAHPIPDSSPLLQFGGQVRQRYLYTDDACQTEAHLEIREDGTVGGAADQSPESLLQLKALKPGVIQILGVKTSRFLCQRPDGALYGSLHFDPEACSFRELLLEDGYNVYQSEAHGLPLHLPGCKSPHRDPAPRGPARFLPLPGLPPAPPEPPGILAPQPPDVGSSDPLSMVGSQGRSPSYAS"
3,252,"161 (protein, Fusion Protein) HGEGTFTSDKSKQLAKRLVRLFIEWLIAGGHSSGKPPPKGGGGGGGSGGGGSGGGGSA[… human IgG4 Fc with changes …]GGGSGSAHPIPDSSPLLQFGGQVRQRYLYTDDACQTEAHLEIREDGTVGGAADQSPESLLQLKALKPGVIQILGVKTSRFLCQRPDGALYGSLHFDPEACSFRELLLEDGYNVYQSEAHGLPLHLPGCKSPHRDPAPRGPARFLPLPGLPPAPPEPPGILAPQPPDVGSSDPLSMVGSQGRSPSYAS"
4,12.1,"157 (protein, Fusion Protein) HGEGTFTSDKSQLLEKRLAHLFIEWLIAGGPSKGRPPPKGGGGGGGSGGGGSGGGGSA[… human IgG4 Fc with changes …]GGGSGSAHPIPDSSPLLQFGGQVRQRYLYTDDACQTEAHLEIREDGTVGGAADQSPESLLQLKALKPGVIQILGVKTSRFLCQRPDGALYGSLHFDPEACSFRELLLEDGYNVYQSEAHGLPLHLPGCKSPHRDPAPRGPARFLPLPGLPPAPPEPPGILAPQPPDVGSSDPLSMVGSQGRSPSYAS"
5,11,"155 (protein, Fusion Protein) HGEGTFTSDKSQLLEKRLAHLFIEWLIAGGHSKGRLPPKGGGGGGGSGGGGSGGGGSA[… human IgG4 Fc with changes …]GGGSGSAHPIPDSSPLLQFGGQVRQRYLYTDDACQTEAHLEIREDGTVGGAADQSPESLLQLKALKPGVIQILGVKTSRFLCQRPDGALYGSLHFDPEACSFRELLLEDGYNVYQSEAHGLPLHLPGCKSPHRDPAPRGPARFLPLPGLPPAPPEPPGILAPQPPDVGSSDPLSMVGSQGRSPSYAS"
6,173,"165 (protein, Fusion Protein) HGEGTFTSDLSKQLAKRLVRLFIEWLIKGGHSSGKPPPKGGGGGGGSGGGGSGGGGSA[… human IgG4 Fc with changes …]GGGSGSAHPIPDSSPLLQFGGQVRQRYLYTDDACQTEAHLEIREDGTVGGAADQSPESLLQLKALKPGVIQILGVKTSRFLCQRPDGALYGSLHFDPEACSFRELLLEDGYNVYQSEAHGLPLHLPGCKSPHRDPAPRGPARFLPLPGLPPAPPEPPGILAPQPPDVGSSDPLSMVGSQGRSPSYAS"
7,9.43,"152 (protein, Fusion Protein) HGEGTFTSDKSQLLEKRLAHLFIEWLLAGGHSSIRPPPKGGGGGGGSGGGGSGGGGSA[… human IgG4 Fc with changes …]GGGSGSAHPIPDSSPLLQFGGQVRQRYLYTDDACQTEAHLEIREDGTVGGAADQSPESLLQLKALKPGVIQILGVKTSRFLCQRPDGALYGSLHFDPEACSFRELLLEDGYNVYQSEAHGLPLHLPGCKSPHRDPAPRGPARFLPLPGLPPAPPEPPGILAPQPPDVGSSDPLSMVGSQGRSPSYAS"
8,270,"162 (protein, Fusion Protein) HGEGTFTSDKSKQLAKRLAHLFIEWLIAGGHSSGKPPPKGGGGGGGSGGGGSGGGGSA[… human IgG4 Fc with changes …]GGGSGSAHPIPDSSPLLQFGGQVRQRYLYTDDACQTEAHLEIREDGTVGGAADQSPESLLQLKALKPGVIQILGVKTSRFLCQRPDGALYGSLHFDPEACSFRELLLEDGYNVYQSEAHGLPLHLPGCKSPHRDPAPRGPARFLPLPGLPPAPPEPPGILAPQPPDVGSSDPLSMVGSQGRSPSYAS"
9,8.7,"158 (protein, Fusion Protein) HGEGTFTSDKSQLLEKRLAHLFIEWLIKGGHSKGRPPPKGGGGGGGSGGGGSGGGGSA[… human IgG4 Fc with changes …]GGGSGSAHPIPDSSPLLQFGGQVRQRYLYTDDACQTEAHLEIREDGTVGGAADQSPESLLQLKALKPGVIQILGVKTSRFLCQRPDGALYGSLHFDPEACSFRELLLEDGYNVYQSEAHGLPLHLPGCKSPHRDPAPRGPARFLPLPGLPPAPPEPPGILAPQPPDVGSSDPLSMVGSQGRSPSYAS"
10,8.66,"151 (protein, Fusion Protein) HGEGTFTSDKSQLLEKRLAHLFIEWLIAGGHSSGRYSPKGGGGGGGSGGGGSGGGGSA[… human IgG4 Fc with changes …]GGGSGSAHPIPDSSPLLQFGGQVRQRYLYTDDACQTEAHLEIREDGTVGGAADQSPESLLQLKALKPGVIQILGVKTSRFLCQRPDGALYGSLHFDPEACSFRELLLEDGYNVYQSEAHGLPLHLPGCKSPHRDPAPRGPARFLPLPGLPPAPPEPPGILAPQPPDVGSSDPLSMVGSQGRSPSYAS"
11,9.22,"156 (protein, Fusion Protein) HGEGTFTSDKSQLLEKRLAHLFIEWLIAGGHSSGRLSPKGGGGGGGSGGGGSGGGGSA[… human IgG4 Fc with changes …]GGGSGSAHPIPDSSPLLQFGGQVRQRYLYTDDACQTEAHLEIREDGTVGGAADQSPESLLQLKALKPGVIQILGVKTSRFLCQRPDGALYGSLHFDPEACSFRELLLEDGYNVYQSEAHGLPLHLPGCKSPHRDPAPRGPARFLPLPGLPPAPPEPPGILAPQPPDVGSSDPLSMVGSQGRSPSYAS"
12,9.98,"153 (protein, Fusion Protein) HGEGTFTSDKSQLLEKRLAHLFIEWLLAGGHSSIKPPPKGGGGGGGSGGGGSGGGGSA[… human IgG4 Fc with changes …]GGGSGSAHPIPDSSPLLQFGGQVRQRYLYTDDACQTEAHLEIREDGTVGGAADQSPESLLQLKALKPGVIQILGVKTSRFLCQRPDGALYGSLHFDPEACSFRELLLEDGYNVYQSEAHGLPLHLPGCKSPHRDPAPRGPARFLPLPGLPPAPPEPPGILAPQPPDVGSSDPLSMVGSQGRSPSYAS"
13,374,"163 (protein, Fusion Protein) HGEGTFTSDKSKQLAEEAVQLFIEWLLAGGPSKEIISGGGGGGGSGGGGSGGGGSA[… human IgG4 Fc with changes …]GGGSGSAHPIPDSSPLLQFGGQVRQRYLYTDDACQTEAHLEIREDGTVGGAADQSPESLLQLKALKPGVIQILGVKTSRFLCQRPDGALYGSLHFDPEACSFRELLLEDGYNVYQSEAHGLPLHLPGCKSPHRDPAPRGPARFLPLPGLPPAPPEPPGILAPQPPDVGSSDPLSMVGSQGRSPSYAS"
